# Over roughly 33,000 sequences, “E-score (-0.5 to 0.5)” has its median near -0.054; the highest 2% begin near 0.39. Some of the results follow.
# Target: Ylr278c (UniProt Q05854)
# Assay: PBM E-score (8-mer binding enrichment) (E-score (-0.5 to 0.5)); higher = stronger / more preferred TF binding; most listed sequences are background and not binding sites
# Details: protein concentration: 200 nM; construct: GST-DNA-binding domain
# In short: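 Full-length yeast transcription factors or their DNA-binding domains, GST-tagged and expressed with PURExpress, were applied at about 100-200 nM to universal all-10-mer Agilent arrays. These arrays had been made double-stranded by primer extension on fresh or once-stripped slides. Detection used fluorescent anti-GST, normalisation used masliner, and E-scores for ungapped eight-base words pooled with reverse complements came from the Universal PBM Analysis Suite.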
row,Sequence,PBM E-score
1,TCTTATAA,0.0583
2,ATCGCCGA,0.373
3,AGTCCCCA,-0.251
4,CGCGTAAC,0.0516
5,ATTAAAGC,-0.128
6,CAGCGCTC,-0.0595
7,TCACTCCA,-0.0238
8,CGGTCAGA,0.0192
9,CTTCGCGA,0.178
10,TCAGGTAA,-0.264
11,AAATGGAC,0.2
12,AGCAGTTC,-0.154
13,CGTTATAA,0.0292
14,ATCAGCCA,-0.161
15,TACGGGGA,0.218
16,AGGCCATC,-0.0692
17,AGACTGTG,-0.306
18,ATATCCGC,0.38
19,CAAAAAGG,-0.203
20,AGTTGTTC,-0.0195
21,CTAATGTC,-0.0159
22,GTACGGAA,0.31
23,ATATCGGA,0.391
24,CAGCCTGG,-0.109
25,TACCCGTA,-0.0475

row,Sequence,PBM E-score
1,CTCCTACC,0.00018
2,TTGAAAAA,-0.0417
3,AAAGTCTT,-0.0794
4,ACTCTACT,-0.128
5,ACGACGAA,0.0437
6,AGAGAAGA,-0.0422
7,CCCCCAGA,-0.314
8,ATTGCGTC,0.174
9,CACCCAAC,0.0545
10,AACTTATG,-0.176
11,CGTAATTC,0.0558
12,ATAAGCTA,-0.0602
13,CGCCAGTC,-0.0188
14,ACTTGCAG,-0.202
15,CTTAACCC,-0.124
16,ACCTACTC,-0.035
17,AGCCGGCC,0.324
18,AAGTCAGA,-0.0129
19,CACGGTCA,-0.052
20,AAGCTTGA,-0.0383
21,AGTATGTC,-0.229
22,GCCCAAAC,0.082
23,GAAATATC,0.145
24,AGGTAACT,-0.0857
25,CCTCAAGA,0.0387

row,Sequence,PBM E-score
1,AAAGAGAA,-0.0443
2,CCCTTTCC,-0.0771
3,ACCAACAA,0.0102
4,TCAACGAA,0.00562
5,ATGGCCAG,0.0813
6,AGCGAAAA,-0.031
7,GTATGCCA,-0.181
8,ACTTTCCC,0.108
9,CTTGTTTA,0.00478
10,AACGCGGT,0.149
11,CAATCTTA,-0.133
12,ACCTTGCA,-0.233
13,CCGTGATC,0.0826
14,ACCAGCGG,0.209
15,CCCAAAAA,-0.138
16,TAATCGTA,-0.186
17,TCCTGAGA,-0.102
18,AGAGGATC,-0.118
19,AAGTAATA,-0.155
20,CCAAGAAC,-0.173
21,AGTTCAAT,-0.12
22,CCGCCTAC,0.172
23,ACCTAATG,-0.331
24,GCACACAC,-0.121
25,GTCCACAA,-0.152

row,Sequence,PBM E-score
1,TTAGCTAA,-0.273
2,ACTACAAA,-0.0603
3,ATTGCGTG,0.0465
4,ACGATCCG,0.283
5,ACCACAAG,0.00571
6,CGGTCCGC,0.38
7,ATGTCGAG,-0.0607
8,GGTCGAGA,-0.0915
9,ATTAGATC,-0.0538
10,GCAAGCTA,-0.171
11,CACCTACA,-0.249
12,AACTGACT,-0.103
13,GCGTACAC,-0.137
14,ATCGGATG,0.329
15,CTTGCAGC,-0.124
16,AACGTAAG,-0.134
17,GATTCTGA,-0.107
18,ATCTTTAC,-0.0617
19,CAATACTG,-0.208
20,ACAATAAT,0.042
21,CGACCTCG,0.0415
22,TCACGAGA,-0.189
23,CACTCCTG,-0.0899
24,ACTGAAGC,-0.124
25,GCACCAGA,-0.14

row,Sequence,PBM E-score
1,AGCCGCAA,-0.0333
2,CCGCTTTC,0.211
3,GGGCTTCA,0.014
4,ATAGTCAG,-0.158
5,CAAACGCG,0.153
6,GCGTTAGA,0.107
7,AATTAACG,0.0135
8,ATTACCTC,0.013
9,AACGCGAC,-0.129
10,ATGCAAAG,-0.16
11,TGCCGACA,0.196
12,CCATTGTA,0.0421
13,TACAAGCA,-0.00116
14,AATGCACT,-0.209
15,ACGTATAT,-0.316
16,CCCGAAAC,0.177
17,ATCTGGTC,-0.0594
18,TGATGCAA,-0.244
19,GACAAACA,-0.0246
20,ACCCGGAA,0.394
21,TATTTAGA,-0.179
22,GTCTAGAA,0.0195
23,CTGAAGGC,-0.261
24,CATCCCCG,0.396
25,CAAAATTC,0.238

row,Sequence,PBM E-score
1,ATGATAGC,-0.0408
2,GAAAGTCA,-0.177
3,AAAGCCCA,0.0171
4,AAGAATTA,-0.054
5,CTTATCAC,-0.245
6,GGATGCGA,-0.134
7,AGGAAACT,-0.152
8,ACCCTATA,-0.189
9,ATTCCATC,-0.0127
10,GGCCTTAC,0.0432
11,CGGGCGGA,0.405
12,AAAGATAA,-0.0975
13,CAGGACCG,0.0623
14,CTACAGGA,-0.145
15,AAATGATC,0.00167
16,CGGGCTCC,0.279
17,GCCAATTA,-0.097
18,ACGTTTAG,-0.29
19,CGTGTGTC,0.0195
20,ATGCTTCG,0.0134
21,ACAGGATC,-0.214
22,CTCACGTC,-0.0221
23,CGGGACTA,0.155
24,AAAATATG,0.0678
25,GAAACGAA,0.00018

row,Sequence,PBM E-score
1,CCCAATTA,-0.00498
2,CCACATGA,-0.138
3,GAAGTGAC,-0.0716
4,CGAAGGGC,0.0868
5,AAACGAGT,-0.0122
6,AACGATGC,-0.233
7,AGTTTCAA,-0.0744
8,CTCAATGC,-0.0847
9,ATGTTGAA,-0.0435
10,AGCTCCTC,-0.144
11,CCGTGCCC,0.134
12,TCCACGAA,-0.137
13,CCCCACGA,-0.0978
14,CATGAGGA,0.0164
15,GACATTAA,0.0355
16,CGACTTGC,-0.034
17,TACAGCTA,-0.239
18,CGTGAAAC,-0.0803
19,ACAATGAT,-0.168
20,GTGAGGAA,-0.0728
21,ACGCAAAT,0.0704
22,GTTGCGAA,-0.0658

# Source: the supplement of paper PMC3334620
